Results as given in PubChem BioAssay AID488969 (Vanderbilt High Throughput Screening Facility, 2010).
Over roughly 110,000 compounds, “z-score” has its median near -0.1; the highest 2% begin near 2. This is one part of the list. Activity calls are given as the source filed them.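 How the source made its calls: active means z-score in the third read window above 3 or below -3; inactive means the rest.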

target: Metabotropic glutamate receptor 8 (Rattus norvegicus) (UniProt P70579); test: mGluR8 Gi/Go-coupled signaling modulation – cell-based, rat, thallium flux, HTS, primary screen (AID 488969); settings: HEK293 rat mGluR8, GIRK (G protein-gated inwardly rectifying potassium channel) thallium flux, FluoZin2; at 10 µM; stronger effect = higher value; submaximal glutamate (EC20) added with thallium
Chain of UniProt P70579 (P70579 whole entry, looked up): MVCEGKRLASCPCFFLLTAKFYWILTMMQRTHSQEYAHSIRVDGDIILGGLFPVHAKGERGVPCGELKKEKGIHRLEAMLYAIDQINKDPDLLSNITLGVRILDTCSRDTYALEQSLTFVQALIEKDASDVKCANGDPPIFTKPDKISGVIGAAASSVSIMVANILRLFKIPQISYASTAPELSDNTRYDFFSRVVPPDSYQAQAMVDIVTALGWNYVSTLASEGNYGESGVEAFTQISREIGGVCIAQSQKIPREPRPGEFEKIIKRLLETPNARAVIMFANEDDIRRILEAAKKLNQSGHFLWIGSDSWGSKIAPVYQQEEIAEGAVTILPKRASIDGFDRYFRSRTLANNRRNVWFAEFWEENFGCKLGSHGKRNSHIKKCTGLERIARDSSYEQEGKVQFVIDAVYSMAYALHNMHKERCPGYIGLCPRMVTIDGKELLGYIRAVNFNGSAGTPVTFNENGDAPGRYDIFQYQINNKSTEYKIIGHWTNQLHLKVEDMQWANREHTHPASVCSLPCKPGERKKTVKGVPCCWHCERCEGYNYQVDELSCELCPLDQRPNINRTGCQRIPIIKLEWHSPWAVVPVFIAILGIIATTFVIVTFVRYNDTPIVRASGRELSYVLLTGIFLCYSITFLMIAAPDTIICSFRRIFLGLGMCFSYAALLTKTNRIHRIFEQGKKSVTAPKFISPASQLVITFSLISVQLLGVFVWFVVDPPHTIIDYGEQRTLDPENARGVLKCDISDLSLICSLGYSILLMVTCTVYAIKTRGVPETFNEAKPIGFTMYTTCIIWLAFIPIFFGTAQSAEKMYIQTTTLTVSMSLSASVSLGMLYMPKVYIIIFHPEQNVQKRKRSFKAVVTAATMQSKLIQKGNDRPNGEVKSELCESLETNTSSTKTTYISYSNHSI

| Compound | z-score |
| --- | --- |
| CC(C)C(NC(=O)C1CCCCC1)C(=O)Nc1ccncc1 (centres undefined) | 0.244 |
| Cn1nc(-c2ccc(Cl)cc2)c2cc(C(=O)NC3CC3)sc21 | 0.194 |
| COCCOC(=O)C1=C(C)NC2=C(C(=O)CCC2)C1c1cc2c(cc1Br)OCO2 (centres undefined) | 0.0462 |
| O=C(Nc1ccc(CN2CCOCC2)cc1)c1cc2ccccc2o1 | 0.834 |
| CC(Oc1ccccc1)C(=O)Nc1oc(-c2ccco2)c(-c2ccco2)c1C#N (centres undefined) | 0.186 |
| Fc1ccc(NC(=S)N2CCCCC2)cc1 | 0.208 |
| CCc1nnc(N2CCN(c3ncnc4c3oc3ccccc34)CC2)s1 | -0.466 |
| O=C(NN1CCOCC1)c1cccc2ccccc12 | 0.557 |
| COC(=O)c1sc(NC(=O)COc2cccc(C)c2)nc1C | -0.0129 |
| CCOC(=O)/C(=N\Nc1ccccc1Cl)N1CCN(Cc2ccccc2)CC1 | 0.108 |
| Cc1c(-c2nc(N)nc(Nc3ccccc3)n2)oc2ccccc12 | 0.0136 |
| CCOc1ccc(C2C(C#N)=C(N)N(c3sc4c(c3C#N)CCCC4)C3=C2C(=O)CCC3)cc1 (centres undefined) | -0.26 |
| Cc1cc(N2CCC(C)CC2)n2nc(C)c(-c3ccccc3)c2n1 | -0.28 |
| CC(C)C(=O)Nc1ccccc1N1CCN(C(=O)c2ccccc2)CC1 | active: -3.21 |
| COC(=O)c1ccc(C2c3c(oc4ccc(F)cc4c3=O)C(=O)N2CCO)cc1 (centres undefined) | -0.286 |
| O=C(NC1=NCCS1)c1sc2cc(Cl)cc(Cl)c2c1Cl | -0.48 |
| Cc1nc2cc(-c3ccccc3)nn2c(C)c1CCC(=O)N1CCN(c2ccccn2)CC1 | 0.627 |
| O=C1CSc2nc3ccccc3n21 | -0.0881 |
| CCOC(=O)c1cnc(SC2CCc3ccccc3C2=O)nc1N (centres undefined) | -1.03 |
| CC1(C)CC(C#N)(N2CCOCC2)CCO1 (centres undefined) | 0.231 |
| CCOc1nc(-c2ccccc2)ccc1-c1noc(COC)n1 | -0.0165 |
| O=C(Cc1ccc(-n2cccc2)cc1)NC1CCCCCC1 | -0.59 |

| Compound | z-score |
| --- | --- |
| CCOC(=O)c1c(NC(=O)c2cc(-c3ccc(Cl)s3)nc3ccccc23)sc(C(N)=O)c1C | 1.25 |
| O=C1Nc2c(Br)cc(Br)cc2C1(O)N1CCOCC1 (centres undefined) | -0.184 |
| CCn1ncc([N+](=O)[O-])c1C(=O)N1CCCC1 | -0.182 |
| COc1cccc(N2C(=O)CC(c3c[nH]c4ccccc34)C2=O)c1 (centres undefined) | -0.102 |
| O=C(NNc1cc(N2CCOCC2)nc(N2CCOCC2)n1)c1ccc(Cl)cc1Cl | 0.211 |
| CC1(C)CC(=O)C2=C(C1)NC(=O)CC2c1ccccc1F (centres undefined) | -0.00253 |
| O=c1[nH]c(N/N=C/c2ccccc2)nc2ccccc12 | -0.345 |
| CCN(CC)C(=O)C(=O)N/N=C/c1ccc(C(=O)O)cc1 | -0.418 |
| N#Cc1c(NC(=O)c2ccccc2)sc2c1CCCCC2 | -0.0717 |
| COC(=O)\C(C(C)=O)=C(/C=C/C=C/C=C/N(C)C)N(C)C | -1.31 |
| Cc1ccc(-c2n[nH]c(=S)n2/N=C/c2cc3c(cc2[N+](=O)[O-])OCO3)cc1 | -0.121 |
| CCN(CC)Cc1nc2c(c(=O)[nH]1)C1(CCCC1)Cc1ccccc1-2 | -0.835 |
| CCOC(=O)c1c(NC(=O)C2=C(C)NC(=S)NC2c2ccc(F)cc2F)sc(C)c1C (centres undefined) | 0.556 |
| N#Cc1nc(N2CCCC2)nc(N2CCCC2)n1 | -0.523 |
| CCN(CC)c1ccc(NC(=O)COC(=O)c2cccs2)cc1 | -0.181 |
| COc1cc(CN2CCCC(C)C2)cc([N+](=O)[O-])c1O (centres undefined) | -0.494 |
| COC(CNC(=O)c1ccc(N2CCc3ccccc32)c([N+](=O)[O-])c1)OC | -0.241 |
| Cn1c(=O)c2c(SCC(=O)NCc3ccco3)nc(CC(C)(C)C)nc2n(C)c1=O | 0.18 |
| Cc1ccc(-n2c(SCC(=O)OC(C)C)nnc2-c2ccco2)cc1 | -0.429 |
| CCOC(=O)C1=CSC2=NS(=O)(=O)CCN12 | -1.31 |
| CC(C)c1nc2sc3c(c2c(=O)o1)CCCC3 | -0.242 |
| COc1ccc(CCNC(=O)CSc2nncs2)cc1 | -0.218 |

| Compound | z-score |
| --- | --- |
| CCOC(=O)c1c(-c2ccccc2)csc1NC(=O)/C(C#N)=C/c1ccc(OC)c(OC)c1 | -0.339 |
| C1CCC2=NCCCN2CC1 | -0.251 |
| COc1ccccc1CNC(=O)C1CCN(S(=O)(=O)c2c(C)noc2C)CC1 | -0.299 |
| CCOC(=O)/C(C#N)=C/c1c(Oc2cccc(C)c2)nc2c(C)cccn2c1=O | 0.646 |
| Cc1cc(C)c(C)c(Cn2c(CO)nc3ccccc32)c1C | 0.457 |
| CCCSc1ccc(-c2nn(-c3ccccc3)cc2/C=C(/C#N)C(=O)NCCCOC)cc1 | 0.0718 |
| Cc1cc(C(=O)CSc2nnc(-c3ccc(Cl)cc3)n2CC2CCCO2)c(C)n1C (centres undefined) | 0.741 |
| C=CCSc1nnnn1-c1ccc(OC)cc1 | 0.0875 |
| Cc1nn(C)c(C)c1S(=O)(=O)N1CCC(C(=O)NCCC2=CCCCC2)CC1 | 1.23 |
| CCC(C)NCC(O)COCc1ccc(Cl)cc1 (centres undefined) | 0.901 |
| CC(C)(C)OC(=O)NCCc1nnc(S(=O)(=O)Cc2ccc(Cl)cc2Cl)o1 | -1.15 |
| CCn1ccc(C(=O)Oc2ccc(Cl)cc2)n1 | -0.0654 |
| Cc1cc[n+](-c2[nH]c(=O)sc2/C=N/NC([S-])=Nc2ccccc2)cc1C | 0.027 |
| CCOC(=O)C1CN(S(=O)(=O)c2ccccc2)CCN1S(=O)(=O)c1ccccc1 (centres undefined) | -0.313 |
| C/C(CC(=O)Nc1ccc(Cl)c(Cl)c1)=N\NC(=O)Cc1ccccc1 | 0.146 |
| CC1CCc2cc(F)ccc2N1S(=O)(=O)c1ccc(Cl)nc1 (centres undefined) | -0.563 |
| Cc1ccc(NS(=O)(=O)c2cc(OCC(N)=O)c(C)cc2Cl)cc1C | 0.294 |
| Cc1ccn(C(=O)c2ccc(NC(=O)C3CCCCC3)cc2)n1 | -0.348 |
| O=C(c1ccco1)[C@@H]1[C@@H]2C(=O)N(c3ccc(Br)cc3)C(=O)[C@@H]2C2c3ccccc3C=CN21 (some centres undefined) | 0.277 |
| Cc1nc(C)c(C(=O)N/N=C/c2c[nH]c3ccccc23)s1 | 0.489 |
| CCn1c(SCC(=O)Nc2ccc(OC)c(OC)c2)nnc1-c1c[nH]c2ccccc12 | -0.141 |
| COc1ccc(S(=O)(=O)N[C@@H](Cc2ccccc2)C(=O)N2CC[C@@]3(O)CCCC[C@H]3C2)cc1 | -1.35 |

| Compound | z-score |
| --- | --- |
| Cn1nc(-c2ccccc2)c(-c2nc(-c3ccc(Cl)cc3)no2)c1Cl | 0.0699 |
| CCOc1ccccc1CNC(=O)c1ccc(Sc2ccc(Cl)cc2)c(NC(C)=O)c1 | -0.248 |
| Cc1ccc(S(=O)(=O)Nc2cc(C(=O)NCCN3CCCC3)ccc2N2CCCCC2)cc1 | 1.81 |
| CN1CCN(CCOc2ccc(Cl)c(Cl)c2)CC1 | -0.12 |
| NC(=O)COC(=O)c1cccc(NS(=O)(=O)/C=C/c2ccccc2)c1 | -0.152 |
| CCC(=O)NC(=S)Nc1ccccc1C(=O)NC1CCCCC1 | 0.0414 |
| O=C(CSc1nnc(Cc2ccccc2)o1)Nc1ccc2c(c1)OCO2 | -0.178 |
| Cc1nn(Cc2ccc([N+](=O)[O-])cc2)c(=O)n1-c1ccccc1 | -0.196 |
| Cc1ccc(C)c(OCc2nc(-c3cccnc3)no2)c1 | 0.0105 |
| Cc1ccc(C)c(N(Cc2ccccc2F)S(C)(=O)=O)c1 | -0.0198 |
| O=C(NCCc1ccccn1)C1CCCN(S(=O)(=O)Cc2ccccc2)C1 (centres undefined) | -0.112 |
| O=C1/C(=C/c2ccc(O)cc2)SC(=S)N1Cc1cccnc1 | -0.121 |
| COc1ccc(Cc2nnc(NC(=O)c3cccc([N+](=O)[O-])c3)s2)cc1 | -0.367 |
| Cn1c(=O)cc(OCCCC(=O)N2CCCCC2)c2ccccc21 | -0.973 |
| CCCCC(=O)Nc1ccc(NC(=O)c2ccc3c(c2)OCO3)cc1OC | -0.065 |
| Cc1ccc(C)c(N(C)C(=O)c2coc(=O)c3ccccc23)c1 | -0.172 |
| O=C1c2ccccc2C2=Nc3ccccc3SC(c3ccc(Cl)cc3)C12 (centres undefined) | -0.247 |
| Cc1cc(C(=O)N2CCN(C(c3ccccc3)c3ccccc3)CC2)no1 | -0.079 |
| O=c1c2c3c(sc2ncn1/N=C/c1ccc(Br)o1)CCCC3 | 1.24 |
| CC1CCCN(Cc2c(O)ccc3c(=O)c(-c4nc5ccccc5s4)c(N)oc23)C1 (centres undefined) | 0.0103 |
| C=CCn1c(COc2ccccc2)nnc1SCC(=O)C(C)(C)C | -0.29 |
| COc1cc(S(=O)(=O)Nc2ccccc2)ccc1N=Cc1c(C)[nH]n(-c2ccc(C)cc2)c1=O | -0.199 |

| Compound | z-score |
| --- | --- |
| Clc1ccc(Nc2ncn[nH]2)cc1 | 0.071 |
| CCc1c(C)sc(NC(=O)OC)c1C(=O)N1CCCCC1 | -0.174 |
| COc1ccccc1NC(=S)N1CCC(NC(=O)NC23CC4CC(CC(C4)C2)C3)CC1 | -0.187 |
| CC1=CC(C)C2C(=O)N(c3ccccc3)C(=O)C2C1 (centres undefined) | 1.3 |
| CCOC(=O)c1oc2ccccc2c1CN1CCOCC1 | -0.0247 |
| O=C(N/N=C/c1cc([N+](=O)[O-])ccc1O)c1cc(-c2ccccc2)nc2ccccc12 | 0.052 |
| Cc1nn(-c2ccccc2)c(Cl)c1/C=C(\C#N)C(=O)NC(C)C | 0.822 |
| CN(CC(=O)N1CCN(c2ccccn2)CC1)S(=O)(=O)c1ccc(Br)cc1 | -0.089 |
| Cc1cc(=O)oc(C)c1C(=O)OCC(=O)c1ccc(Cl)cc1 | -0.417 |
| O=C(c1ccco1)N1CCN(C(=O)c2cc3sccc3n2Cc2ccccc2)CC1 | 0.587 |
| COc1ccc([N+](=O)[O-])cc1NC(=O)c1cn(-c2ccc(C)c(C)c2)c(=O)c2ccccc12 | 0.00792 |
| CCc1cccc(CC)c1-n1c(SCC(=O)N2CCc3ccccc3C2)nnc1-c1cccnc1 | active: -3.06 |
| COCCN(CC(=O)NC1CCCCC1)C(=O)CSc1nc2ccccc2o1 | 0.165 |
| Cc1onc(-c2c(F)cccc2Cl)c1C(=O)N1CCc2ccccc2C1 | 0.182 |
| O=C(O)CCC(=O)N1CCc2cc(S(=O)(=O)NC3CCCc4ccccc43)ccc21 (centres undefined) | -0.137 |
| Cc1ccc(N=C2NC(=O)C(CC(=O)NCc3ccccc3)S2)cc1C (centres undefined) | -0.263 |
| CCCc1nc(C)c(-c2ccc(OC)c(OC)c2)c(=O)[nH]1 | -0.363 |
| CCc1ccc2oc(-c3cc(N)ccc3O)nc2c1 | -0.0848 |
| O=c1c2ccccc2nnn1CSc1ccccc1 | -0.428 |
| O=C(CNC(=O)/C(=C\c1ccccc1)NC(=O)c1ccc(Br)cc1)OCc1ccccc1 | -0.33 |
| O=S(=O)(Nc1ccc(S(=O)(=O)Nc2nccs2)cc1)c1ccc2c(c1)OCCO2 | 0.181 |
